# This is one part of the list. Repeats are few or missing, and single values can be far off.
# Test system: 501Mel
# Experiment: cell count relative to DMSO control; melanoma cells; higher = more viable cells
# Conditions: library dose: low library concentration; 72 h
# 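Note: cell number obtained by counting DAPI-stained nuclei in high-throughput microscope images with image analysis software, screen run in 1,536-well plates.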
row,Compound,cell count [%]
1,"C=C(c1ccc(C(=O)O)cc1)c1cc2c(cc1C)C(C)(C)CCC2(C)C [Bexarotene] + Cn1cc(/C=C2\C(=O)Nc3cccnc32)c2ccccc21 [GW441756] (first compound 2 µM, partner dose 0.4 µM)",89.3
2,"NC1(c2ccc(-c3nc4ccn5c(=O)[nH]nc5c4cc3-c3ccccc3)cc2)CCC1 + CC(C)CCN1c2nc(Nc3cc(F)c(O)c(F)c3)ncc2N(C)C(=O)C1C [BID1870] (first compound 0.4 µM, partner dose 0.2 µM)",73.3
3,"CS(=O)(=O)c1ccc(C(=O)Nc2ccc(Cl)c(-c3ccccn3)c2)c(Cl)c1 [vismodegib] + N#Cc1c(O)c2c(-c3ccc(-c4ccccc4O)cc3)csc2[nH]c1=O [A769662] (first compound 1 µM, partner dose 2 µM)",89.9
4,"CN(c1ncccc1CNc1nc(Nc2ccc3c(c2)CC(=O)N3)ncc1C(F)(F)F)S(C)(=O)=O + COC(=O)c1sccc1S(=O)(=O)Nc1ccc(Nc2ccccc2)cc1OC [GSK0660] (first compound 0.08 µM, partner dose 1 µM)",91.8
5,"CCCS(=O)(=O)Nc1ccc(F)c(C(=O)c2c[nH]c3ncc(Cl)cc23)c1F + COC(=O)c1sccc1S(=O)(=O)Nc1ccc(Nc2ccccc2)cc1OC [GSK0660] (first compound 0.08 µM, partner dose 1 µM)",107
6,"NC1(c2ccc(-c3nc4ccn5c(=O)[nH]nc5c4cc3-c3ccccc3)cc2)CCC1 + COc1cc(N2CCC(N3CCN(C)CC3)CC2)ccc1Nc1ncc(Cl)c(Nc2ccccc2S(=O)(=O)C(C)C)n1 [NVP-TAE684] (first compound 0.4 µM, partner dose 0.08 µM)",74.2
7,"CS(=O)(=O)c1ccc(C(=O)Nc2ccc(Cl)c(-c3ccccn3)c2)c(Cl)c1 [vismodegib] + CCN(CC)CCCCNc1ncc2cc(-c3cc(OC)cc(OC)c3)c(NC(=O)NC(C)(C)C)nc2n1 [PD173074] (first compound 1 µM, partner dose 0.1 µM)",104
8,"CCCS(=O)(=O)Nc1ccc(F)c(C(=O)c2c[nH]c3ncc(Cl)cc23)c1F + N#Cc1c(O)c2c(-c3ccc(-c4ccccc4O)cc3)csc2[nH]c1=O [A769662] (first compound 0.08 µM, partner dose 2 µM)",62.4
9,"CCCS(=O)(=O)Nc1ccc(F)c(C(=O)c2c[nH]c3ncc(Cl)cc23)c1F + COc1ccc2c(c1)CCC1C2CCC2(C)C(NCCCCCCN3C(=O)C=CC3=O)CCC12 [U73122] (first compound 0.08 µM, partner dose 0.4 µM)",96.3
10,"CN(c1ncccc1CNc1nc(Nc2ccc3c(c2)CC(=O)N3)ncc1C(F)(F)F)S(C)(=O)=O + O=S(=O)(c1ccccc1)N(CC(F)(F)F)c1ccc(C(O)(C(F)(F)F)C(F)(F)F)cc1 [T0901317] (first compound 0.08 µM, partner dose 1.4 µM)",71.2
11,"CCCS(=O)(=O)Nc1ccc(F)c(C(=O)c2c[nH]c3ncc(Cl)cc23)c1F + O=C1NC(=O)/C(=C/c2ccc(-c3ccc(F)cc3O)o2)S1 [AS252424] (first compound 0.08 µM, partner dose 1 µM)",150
12,"NC1(c2ccc(-c3nc4ccn5c(=O)[nH]nc5c4cc3-c3ccccc3)cc2)CCC1 + COc1cc2ncnc(Nc3ccc(Oc4ccccc4)cc3)c2cc1OC [SrcI1] (first compound 0.4 µM, partner dose 2 µM)",84.2
13,"C=C(c1ccc(C(=O)O)cc1)c1cc2c(cc1C)C(C)(C)CCC2(C)C [Bexarotene] + COc1cc2ncnc(Nc3ccc(Oc4ccccc4)cc3)c2cc1OC [SrcI1] (first compound 2 µM, partner dose 2 µM)",93.7
14,"C=C(c1ccc(C(=O)O)cc1)c1cc2c(cc1C)C(C)(C)CCC2(C)C [Bexarotene] + O=S(=O)(c1ccccc1)N(CC(F)(F)F)c1ccc(C(O)(C(F)(F)F)C(F)(F)F)cc1 [T0901317] (first compound 2 µM, partner dose 1.4 µM)",72.7
15,"C=C(c1ccc(C(=O)O)cc1)c1cc2c(cc1C)C(C)(C)CCC2(C)C [Bexarotene] + Oc1cc(-c2nc(-c3ccccc3)[nH]c2-c2ccncc2)ccc1Cl [L779450] (first compound 2 µM, partner dose 0.2 µM)",87
16,"CN(c1ncccc1CNc1nc(Nc2ccc3c(c2)CC(=O)N3)ncc1C(F)(F)F)S(C)(=O)=O + COc1ccc2c(c1)CCC1C2CCC2(C)C(NCCCCCCN3C(=O)C=CC3=O)CCC12 [U73122] (first compound 0.08 µM, partner dose 0.4 µM)",79.2
17,"CCCS(=O)(=O)Nc1ccc(F)c(C(=O)c2c[nH]c3ncc(Cl)cc23)c1F + CCCCCCCCCCCC1=C(O)C(=O)C=C(O)C1=O [Embelin] (first compound 0.08 µM, partner dose 1.2 µM)",110

row,Compound,cell count [%]
1,"CN(c1ncccc1CNc1nc(Nc2ccc3c(c2)CC(=O)N3)ncc1C(F)(F)F)S(C)(=O)=O + Oc1nc(-c2ccc(C(F)(F)F)cc2)nc2c1CSCC2 [XAV939] (first compound 0.08 µM, partner dose 2 µM)",105
2,"NC1(c2ccc(-c3nc4ccn5c(=O)[nH]nc5c4cc3-c3ccccc3)cc2)CCC1 + COc1ccc2c(c1)CCC1C2CCC2(C)C(NCCCCCCN3C(=O)C=CC3=O)CCC12 [U73122] (first compound 0.4 µM, partner dose 0.4 µM)",78.1
3,"C=C(c1ccc(C(=O)O)cc1)c1cc2c(cc1C)C(C)(C)CCC2(C)C [Bexarotene] + O=C1NC(=O)/C(=C/c2ccc(-c3ccc(F)cc3O)o2)S1 [AS252424] (first compound 2 µM, partner dose 1 µM)",99.3
4,"CN(c1ncccc1CNc1nc(Nc2ccc3c(c2)CC(=O)N3)ncc1C(F)(F)F)S(C)(=O)=O + COc1cc(N2CCC(N3CCN(C)CC3)CC2)ccc1Nc1ncc(Cl)c(Nc2ccccc2S(=O)(=O)C(C)C)n1 [NVP-TAE684] (first compound 0.08 µM, partner dose 0.08 µM)",80.9
5,"CN(c1ncccc1CNc1nc(Nc2ccc3c(c2)CC(=O)N3)ncc1C(F)(F)F)S(C)(=O)=O + O=c1cc(-c2cccc3c2Sc2ccccc2S3)oc(N2CCOCC2)c1 [KU55933] (first compound 0.08 µM, partner dose 1 µM)",99
6,"CN(c1ncccc1CNc1nc(Nc2ccc3c(c2)CC(=O)N3)ncc1C(F)(F)F)S(C)(=O)=O + N#Cc1c(O)c2c(-c3ccc(-c4ccccc4O)cc3)csc2[nH]c1=O [A769662] (first compound 0.08 µM, partner dose 2 µM)",93
7,"CCCS(=O)(=O)Nc1ccc(F)c(C(=O)c2c[nH]c3ncc(Cl)cc23)c1F + Oc1cc(-c2nc(-c3ccccc3)[nH]c2-c2ccncc2)ccc1Cl [L779450] (first compound 0.08 µM, partner dose 0.2 µM)",86.7
8,"NC1(c2ccc(-c3nc4ccn5c(=O)[nH]nc5c4cc3-c3ccccc3)cc2)CCC1 + O=C(O)C(=O)Nc1sc2c(c1C(=O)O)CCNC2 [TCS401] (first compound 0.4 µM, partner dose 1.66667 µM)",79.8
9,"CN(c1ncccc1CNc1nc(Nc2ccc3c(c2)CC(=O)N3)ncc1C(F)(F)F)S(C)(=O)=O + Cn1cc(/C=C2\C(=O)Nc3cccnc32)c2ccccc21 [GW441756] (first compound 0.08 µM, partner dose 0.4 µM)",69.8
10,"CS(=O)(=O)c1ccc(C(=O)Nc2ccc(Cl)c(-c3ccccn3)c2)c(Cl)c1 [vismodegib] + COc1cc2ncnc(Nc3ccc(Oc4ccccc4)cc3)c2cc1OC [SrcI1] (first compound 1 µM, partner dose 2 µM)",101
11,"NC1(c2ccc(-c3nc4ccn5c(=O)[nH]nc5c4cc3-c3ccccc3)cc2)CCC1 + COc1ccc(-c2ccc3c(N4CCOCC4)nc(N4C[C@@H](C)O[C@@H](C)C4)nc3n2)cc1CO [KU0063794] (first compound 0.4 µM, partner dose 0.02 µM)",87.9
12,"CN(c1ncccc1CNc1nc(Nc2ccc3c(c2)CC(=O)N3)ncc1C(F)(F)F)S(C)(=O)=O + O=C1NC(=O)/C(=C/c2ccc(-c3ccc(F)cc3O)o2)S1 [AS252424] (first compound 0.08 µM, partner dose 1 µM)",82.8
13,"CS(=O)(=O)c1ccc(C(=O)Nc2ccc(Cl)c(-c3ccccn3)c2)c(Cl)c1 [vismodegib] + COc1ccc(COc2ccc(Cc3cnc(N)nc3N)cc2OC)cc1 [GW2580] (first compound 1 µM, partner dose 1 µM)",117
14,"CS(=O)(=O)c1ccc(C(=O)Nc2ccc(Cl)c(-c3ccccn3)c2)c(Cl)c1 [vismodegib] + COc1ccc2c(c1)CCC1C2CCC2(C)C(NCCCCCCN3C(=O)C=CC3=O)CCC12 [U73122] (first compound 1 µM, partner dose 0.4 µM)",131
15,"NC1(c2ccc(-c3nc4ccn5c(=O)[nH]nc5c4cc3-c3ccccc3)cc2)CCC1 + Cn1cc(/C=C2\C(=O)Nc3cccnc32)c2ccccc21 [GW441756] (first compound 0.4 µM, partner dose 0.4 µM)",83.3
16,"C=C(c1ccc(C(=O)O)cc1)c1cc2c(cc1C)C(C)(C)CCC2(C)C [Bexarotene] + O=C(Nc1ccccc1)c1cc([N+](=O)[O-])ccc1Cl [GW9662] (first compound 2 µM, partner dose 2 µM)",82.8
